The other results are listed elsewhere or left out.
System: PfHDP1 homeodomain (GST-tagged)
Experiment: gcPBM binding intensity (ln(normalized median fluorescence intensity)); higher = stronger DNA binding
Summary of the method: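 For binding intensity, the highest Masliner-normalised natural-log median intensity across replicate spots of either probe orientation was taken. Protein bound to the array was stained with Alexa488 anti-GST antibody and scanned at 488 nm. The protein, GST-tagged P. falciparum DNA-binding domains from E. coli at about 25 μg on average, had been applied for 1 h to an Agilent 4 × 180k array of primer-extended double-stranded 36-bp intergenic genomic probes and negative controls.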

| Sequence | gcPBM binding intensity (ln) |
| --- | --- |
| TATTATATATTTAATAGTACATATAAAATAATAAGG [XGTACX_site4823] | 6.45 |
| TATATATAGAAACACACACACATATATATATATATT [CACACA_site4115] | 6.81 |
| CATAAAATTGTATTTTGTACACATTTTGTATACATT [XGTACX_site5705] | 6.07 |
| ATTTACATAAACGTCTGTACTAATATACAATTTTCT [XGTACX_site1700] | 6.34 |
| AAAAAAAAAGAGGCGTGTACATATATAATTTAAATT [XGTACX_site6827] | 7.02 |
| ATAATAGAAACAAACAGTACACATACCTAAAAGGAA [XGTACX_site8647] | 6.41 |
| TTATTAAAGTATAACTGTACATGCGAGTAAAAGAAT [XGTACX_site7388] | 7.58 |
| TGTTCTAATATTTGTTGTACATTTACATTTCTCTCT [XGTACX_site2585] | 6.84 |
| TATTTTATTTCAAATCTTAATAATTGTAATTCTTCA [XGTACX_negctrl_site442] | 5.93 |
| ATTTTTAAAATAAATACATGCATATATTTATATGTT [TGCATGCA_site394] | 6.41 |
| TTTTAATTAGAAATCATACACACATATATATATATA [CACACA_site174] | 9.11 |
| TGTGTAATACATAATACACACATGTATATGTCGCAT [CACACA_site4757] | 6.84 |
| TTTTTTTTTGTTATGTTGCACTTTGCCATATTATTA [GTGCAC_site9844] | 7.35 |
| TTTCAAATGATTAAGTGTACATGTTTGCTTGCTCTT [XGTACX_site4697] | 6.8 |
| AACAATATATTGATATTATTTTAAGTGATTATATAT [XGTACX_negctrl_site205] | 6.04 |
| TATAAAAAAATAAAAGGAATATACTTGCAAAGGGTA [CACACA_negctrl_site1438] | 8.14 |
| AATAATAAAAAAAGTGCACACACATAATATATATAT [CACACA_site9100] | 8.79 |
| ATGTATATATATATATGTACATATTTTTTATATGTA [XGTACX_site441] | 6.23 |
| TTTAAAATAAATTAATAGAACAAAAATAAAATGATT [GTGCAC_negctrl_site375] | 6.55 |
| TTCTTTTTTTAAAGAAGTACTATATTTTAAATTATA [XGTACX_site5059] | 5.8 |
| AAAAAAAATACAAAAAGTACAAAAAATACAAAAAAA [XGTACX_site8844] | 6.19 |
| AATTTTATTACTTTTACACACCTATATATCATTCAT [CACACA_site7525] | 6.91 |
| ACCTTAAATAATACATGTACAAAAAAATTTATAATA [XGTACX_site1043] | 7.66 |

| Sequence | gcPBM binding intensity (ln) |
| --- | --- |
| TAGGGATTATACCACACACACATACACATAAATATA [CACACA_site3178] | 6.9 |
| AAGAATAAGGAAAAATGTACAGAATGCACATATGAA [XGTACX_site4705] | 9.28 |
| TAGTTTTGAAAACAAACACACAAAAAAAAAAAAAAA [CACACA_site1692] | 6.13 |
| TACATATTACTATTCAGTACATATTTTTTTTTCATT [XGTACX_site7468] | 6.31 |
| AGGATAAAAGTTATGGTGCATTAACCTATTTAAATA | 10.1 |
| TATATAGGTATATATACACACAACGGTTATAAATAT [CACACA_site4759] | 6.68 |
| TATAAAGACACGAAAACACACATATGTAAATATATA [CACACA_site8056] | 7.13 |
| TTTGAGTTACTATTCACACAAAATGGATAAATTAAT [CACACA_site5626] | 6.38 |
| CACATAAATAATTAAACACACATTGTTCTAGACAAT [CACACA_site2378] | 6.51 |
| ATGTAAGTAATTATCTGTACACATAATATATATATA [XGTACX_site2618] | 8.56 |
| AATATAAAAAATAATACACACACATGGCGACAAAAT [CACACA_site8765] | 7.31 |
| TATTAATCCTTTTGCTTGGAAACATTCAAAAGGAAG [CACACA_negctrl_site1129] | 5.99 |
| AAAATAAACCCAGACACACTCATTAAAAAATATCAT [CACACA_site5903] | 6.49 |
| ATAAATAAATACTAGGCACACACACCGATATATATA [CACACA_site8649] | 7.07 |
| ATATATATAAAATATGGTACAGAAAAAGTCTTGTTT [XGTACX_site8868] | 7.07 |
| TTCTGTCAATATGCTTGTACGAAATATTTCGTAATT [XGTACX_site3182] | 6.7 |
| AAACCGTGGGAGCACACACACACACCCACCCATATA [CACACA_site332] | 6.6 |
| ATAATAACAAAATATTAACACACATAACATATTATA [CACACA_site8906] | 6.41 |
| ACAAAACAAAACAAAAGTACACAAAATAAATAAGAT [XGTACX_site6497] | 7.06 |
| AATCCTTAAAATTAACGTACGAAATGAATTTATTAA [XGTACX_site956] | 6.23 |
| TGGAGGTCATTACACAGTACCCAGGAAATCTACGGA [XGTACX_site2004] | 6.21 |
| AAAGATATAAATTACTGTACTAATGAAATTGGTAAA [XGTACX_site3582] | 6.14 |
| TTAAATAATGCCACCAGTACCCACTGAAAGAAAAAA [XGTACX_site5013] | 6.25 |

| Sequence | gcPBM binding intensity (ln) |
| --- | --- |
| CAATTGATATTGAAATGTACTTTTTAGATGAACCTT [XGTACX_site2354] | 6.17 |
| TATATTAAAATTTACTGTACTTTTTTTATTTTAAAA [XGTACX_site4077] | 6.17 |
| ATGTATATATTCAATTGTACATGTTATATTTACACA [XGTACX_site1125] | 6.5 |
| ATTGTATTAAAATGCACACATATCAAGAGGAATTTT [CACACA_site283] | 9.8 |
| AAAGAATAATTAAATACACACATATTGCAGTAAAAA [CACACA_site7201] | 6.89 |
| ATATTAAAATTTTAATGTACATGCGTATGTAGGAAT [XGTACX_site1673] | 7.44 |
| TATATTATATTTTTATGTACTTATTTATTTTGTTTC [XGTACX_site6145] | 6.44 |
| AACATATATTTTTAATGTACAAGGTTGTAAAGAACT [XGTACX_site1405] | 6.68 |
| ATAAAGCACACCGACACACACATATATATATATATA [CACACA_site1047] | 9.37 |
| CAAAAAAAAAAACGGGTGCTAAATTTTATTTTTTAT | 6.73 |
| AAAAAAAAAATATATATATATATATATATATATATA [GTGCAC_negctrl_site467] | 9.4 |
| TATCATGGTTCGGATTGTACATATATGAATTTTTTT [XGTACX_site7478] | 6.46 |
| TTCTTTTAAAAATATATTTTAAGAAAATTTAATTTA [GTGCAC_negctrl_site237] | 6.09 |
| GGATAAGAAAAGAAGTGTACATATATATATATATAT [XGTACX_site8290] | 9.37 |
| TTTATTTTTTGAAACACACACAAAAAAAATGATACA [CACACA_site1881] | 6.81 |
| AAAAAAGAAATAAGGATACACACTATTGATAAAAGT [CACACA_site272] | 6.67 |
| CCAGTGTGCACCTTGCGTACATATTAAATTAATTAA [XGTACX_site3729] | 10.4 |
| TTTTTTAAATTTAAAGTGCATTATTATATATTTGTA | 8.5 |
| GGATATATAAGATACACACACAAATTAAATATAAAA [CACACA_site7333] | 6.81 |
| TAATATATAAATATATGTACATAATTAATAGGATAT [XGTACX_site237] | 6.87 |
| TATTCCTAATTTAAAAGTACATATATATATATATAT [XGTACX_site3008] | 9.24 |
| TTGTTTCAAAATTAAACACACACAAAAAAAAAAAAA [CACACA_site8856] | 6.03 |
| CTTATAATATTACGGGTGCTATAAATACATTATATT | 6.67 |

| Sequence | gcPBM binding intensity (ln) |
| --- | --- |
| TAAATCAAAAACAACAAGTCATATTAAAGATGGTAT [CACACA_negctrl_site1321] | 6.68 |
| TATATTTATATCATCACACATTTTTTTTTTCTTTTT [CACACA_site6150] | 6.23 |
| AAGGAAAACAGTAGGTGTACCAAACGTCCTAGGAAC [XGTACX_site3659] | 6.46 |
| AAAAAAAAAAAAAAGAGTACTTTTTTCACATTCATC [XGTACX_site8795] | 6.35 |
| AATATATGTTAAAATGGTACACAATTATTATATATT [XGTACX_site6407] | 6.42 |
| TAAAATGAATAAAATTGTACTTAATAATATTTTAAA [XGTACX_site5532] | 6.03 |
| TTTTCTTTTTTCTTTTTAACTCTTACATAATAGGTG [CACACA_negctrl_site642] | 6.27 |
| AAAAAAAAAAAAATTACACACATACCTATAAGAATA [CACACA_site7097] | 6.46 |
| TCAAAATGTGACATAAAAGAAAAAAAAAAAAAAAAA [CACACA_negctrl_site1092] | 6.22 |
| AAAATGTATATTGGCGCATGTAAACAAATACTATAC [TGCATGCA_site385] | 7 |
| GATAATAATAAGTGTACACATATATTTAGAAGAGTA [CACACA_site4245] | 7.19 |
| TGGGGTATTAAAAAAACACACAAAAAAAATATAAAG [CACACA_site1915] | 6.48 |
| TTTTTTTTTCTGTATACACACAAAATTTATTTTTTA [CACACA_site2873] | 6.68 |
| TTAATAACGTAATGTAAATGTTTCATACCCTTTTTT [CACACA_negctrl_site988] | 6.36 |
| ATATATATGTATGTATATATATATATATATGTTTGA [CACACA_negctrl_site107] | 6.67 |
| ATAAAATAAAAACATGCACACTTTATTTTTTTTAAG [CACACA_site5545] | 8.84 |
| AAAGAAGGGGGGGGAAAAAAAAATAAAAGAGGAAAA [XGTACX_negctrl_site92] | 7.61 |
| ATATATAATAATTGTAGTACAATTAATAAATAAAAT [XGTACX_site3840] | 6.54 |
| TATATATATATAATTTGTACACACAAATATGCATAT [XGTACX_site7297] | 9.02 |
| TCCTCATTTTATCATACACACTTGTTTATATGTGTG [CACACA_site6548] | 6.72 |
